In paper PMC4336329 (PLoS ONE, 2015):
Screen size: about 310,000 compounds; about 14,000 (4.5%) showed an effect of 50% or more. Effects have a minus sign here. This is one part of the list.

These molecules were tested against human ether-à-go-go-related gene (hERG) potassium channel (human, UniProt Q12809) (assay: primary screen, population patch clamp on CHO cells stably expressing hERG).
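Also: peak tail current of the secondary pulse compared with the same well before compound.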

Sequence of human ether-à-go-go-related gene (hERG) potassium channel (Q12809 whole entry, looked up): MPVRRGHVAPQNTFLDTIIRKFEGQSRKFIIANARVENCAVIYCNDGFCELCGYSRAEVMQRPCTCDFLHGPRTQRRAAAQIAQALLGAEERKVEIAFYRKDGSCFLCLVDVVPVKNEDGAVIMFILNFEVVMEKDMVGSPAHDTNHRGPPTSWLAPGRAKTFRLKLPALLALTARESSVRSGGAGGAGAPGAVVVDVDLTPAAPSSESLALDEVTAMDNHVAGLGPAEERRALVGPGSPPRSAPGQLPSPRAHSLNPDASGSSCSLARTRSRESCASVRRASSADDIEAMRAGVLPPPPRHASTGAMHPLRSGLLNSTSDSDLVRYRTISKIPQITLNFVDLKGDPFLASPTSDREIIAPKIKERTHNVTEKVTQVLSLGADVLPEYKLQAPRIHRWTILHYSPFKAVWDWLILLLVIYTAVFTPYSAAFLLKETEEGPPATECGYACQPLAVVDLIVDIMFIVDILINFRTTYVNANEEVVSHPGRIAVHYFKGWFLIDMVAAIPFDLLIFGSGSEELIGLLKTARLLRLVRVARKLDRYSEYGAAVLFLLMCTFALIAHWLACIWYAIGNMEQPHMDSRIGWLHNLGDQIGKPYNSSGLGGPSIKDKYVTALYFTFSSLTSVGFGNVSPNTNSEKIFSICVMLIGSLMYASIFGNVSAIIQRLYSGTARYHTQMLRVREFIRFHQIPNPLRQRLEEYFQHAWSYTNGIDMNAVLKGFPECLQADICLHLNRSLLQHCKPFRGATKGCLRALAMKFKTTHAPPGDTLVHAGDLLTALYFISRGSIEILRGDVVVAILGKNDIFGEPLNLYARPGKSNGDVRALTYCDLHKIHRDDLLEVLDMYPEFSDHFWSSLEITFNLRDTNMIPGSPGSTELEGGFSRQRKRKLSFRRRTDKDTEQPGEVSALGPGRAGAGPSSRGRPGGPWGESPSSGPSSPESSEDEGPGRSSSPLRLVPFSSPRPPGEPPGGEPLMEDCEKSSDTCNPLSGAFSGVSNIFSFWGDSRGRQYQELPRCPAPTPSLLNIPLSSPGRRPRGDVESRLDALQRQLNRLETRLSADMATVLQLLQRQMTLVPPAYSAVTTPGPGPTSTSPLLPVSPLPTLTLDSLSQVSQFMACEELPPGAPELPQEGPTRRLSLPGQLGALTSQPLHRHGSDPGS

Row | Structure (SMILES) | hERG current change (%, negative = inhibition) at 10uM [%]
1 | CC[N+](CC)(CC=C(C)C)CC(=O)OC.[Cl-] | 20.8
2 | O=C(NC1=NCCS1)C1CC(=O)N(c2ccc(Cl)cc2)C1 (stereo not shown) | 8.41
3 | COc1ccc(/C=C2\SC(=S)N(CCCC(=O)N3CCN(C)CC3)C2=O)cc1 | -24.4
4 | CCOC(=O)c1c(S(=O)(=O)NCC(=O)NCc2ccccc2)c(C)n(C)c1C | 8.56
5 | O=C(CSc1nc2ccccc2[nH]1)c1ccco1 | -4.74
6 | O=C(Cn1nnc(-c2ccccc2)n1)NCc1ccco1 | 7.58
7 | COc1ccc(C2Sc3nncn3N2Cc2ccc(C#N)cc2)cc1 (stereo not shown) | -8.74
8 | Cc1cc(/C=N\NC(=O)c2cccs2)c(C)n1-c1ccc2ncccc2c1 | 3.27
9 | Cc1sc(NC(=O)CSc2ncn(-c3ccccc3)n2)nc1-c1ccccc1 | -0.44
10 | Cn1nccc1C(=O)Nc1ccc2c(c1)OCCO2 | -6.55
11 | COc1cccc(/C=C2/Oc3ccccc3N(CC(=O)NCC3CCCO3)C2=O)c1 (stereo not shown) | 14
12 | CCOc1ccc(CCNC(=O)C2CCN(S(=O)(=O)CC)CC2)cc1OCC | -4.28
13 | CCCCN(C(=O)c1ccc2c(c1)OCO2)C1CCS(=O)(=O)C1 (stereo not shown) | 5.61
14 | CC(C)(C)OC(=O)[C@H](NC(=O)OCc1ccccc1)c1ccccc1 | -28.8
15 | O=C(CN1CCN(C(=O)C2CCCO2)CC1)Nc1ccc(F)cc1 (stereo not shown) | -66.1
16 | CCC(C)NC(=O)c1ccc(NS(=O)(=O)c2ccc3[nH]c(=O)[nH]c3c2)cc1 (stereo not shown) | 10.1
17 | COc1ccc(COc2ncnc3ccc(Br)cc23)cc1F | -23.1
18 | Cc1cc(NS(=O)(=O)c2ccc(NC(=O)c3ccc(Cl)cc3Cl)cc2)no1 | 24.4
19 | O=C(NN1C(=O)C2C3C=CC(C4CC34)C2C1=O)c1ccc(Cl)c(Cl)c1 (stereo not shown) | 14.9
20 | CCC(Sc1nc2ccccc2o1)C(=O)O (stereo not shown) | -4.78
21 | CC(C)CN(C(=O)CSc1nnnn1-c1ccccc1)c1c(N)n(CC(C)C)c(=O)[nH]c1=O | 14.5
22 | CC(NS(=O)(=O)c1ccc(Cl)cc1)C(c1cccs1)N1CCN(C)CC1 (stereo not shown) | -43.7

Row | Structure (SMILES) | hERG current change (%, negative = inhibition) at 10uM [%]
23 | Nc1nc(CSC(=S)N2CCN(c3ccccc3)CC2)nc(Nc2ccccc2)n1 | 0.151
24 | COc1ccc(CCn2c(=O)[nH]c3cc(C(=O)NCCN4CCOCC4)ccc3c2=O)cc1OC | 0.353
25 | Oc1ccc(N=Nc2n[nH]c(-c3ccc(Cl)cc3)n2)cc1 | 6.49
26 | COc1ccc(C2C=C(c3ccccc3)Nc3nc(NC(C)=O)nn32)cc1 (stereo not shown) | -22.9
27 | COc1cc(/C=C/C(=O)OCC(=O)Nc2cc(C(F)(F)F)ccc2N2CCOCC2)ccc1O | -0.592
28 | Cc1cc(S(=O)(=O)NC2CCCCC2)ccc1-n1cnnn1 | 23.2
29 | COc1ccc(C(=O)N/C(=C\c2cn(C)c3ccccc23)C(=O)N2CCOCC2)cc1 | -10.9
30 | O=C(NNS(=O)(=O)c1ccc(Cl)cc1Cl)c1cc2ncc(C(F)(F)F)cc2s1 | 15.7
31 | CN(CC1CCCN(CCc2ccc(Cl)cc2)C1)C(=O)c1ccc2nc[nH]c2c1 (stereo not shown) | -34.1
32 | O=C(CN(c1ccccn1)S(=O)(=O)c1ccccc1)Nc1ccccc1 | 5.51
33 | O=C(CNC(=O)c1ccc(Oc2ccccc2)cc1)OCc1ccc(Br)cc1 | -0.714
34 | CCCc1cc(Nc2ccccc2OCC)n2ncnc2n1 | -21.9
35 | O=C(Cn1ccc([N+](=O)[O-])n1)NCC1CCCO1 (stereo not shown) | 17.9
36 | NC(=O)[C@H](Cc1cc2ccccc2s1)NC(=O)[C@@H]1CC2(CC(c3cccc(NC(=O)[C@@H]4CCC(=O)N4)c3)=NO2)CN1C(=O)/C=C/Sc1ccccc1 (stereo partly shown) | 14.1
37 | COc1ccc(Nc2nnc(SCc3cc(=O)n4ccsc4n3)s2)cc1 | -68.9
38 | Cn1cc(CC(=O)NC2CCCCC2)c2ccccc21 | 21.3
39 | Cn1c(=O)[nH]c(=O)c2c1nc(N/N=C/c1ccncc1)n2Cc1ccc(F)cc1 | 9.38
40 | OCCN1CNC(=S)NC1 | 7.7
41 | COc1ccc(Cl)cc1NC(=O)c1cnccn1 | 8.97
42 | COc1ccc2c(c1)[nH]c1c(=O)n(CCc3cnc[nH]3)cnc12 | -0.954
43 | Nc1cccc2c1C(=O)N(CC(=O)NC13CC4CC(CC(C4)C1)C3)C2=O | 9.95
44 | Cc1ccc(Nc2ncccc2C(=O)NCc2cccs2)c(C)c1 | 3.88

Row | Structure (SMILES) | hERG current change (%, negative = inhibition) at 10uM [%]
45 | CCN(c1cccc(C)c1)S(=O)(=O)c1ccc2c(c1)NC(=O)CCS2 | 8.09
46 | Cc1ccc(-n2nc(C(=O)O)c3ccccc3c2=O)cc1C | -1.39
47 | CC(=O)N1CCc2c(sc(NC(=O)CCS(=O)(=O)c3ccc(C)cc3)c2C#N)C1 | -21.3
48 | COc1ccccc1N(C(=O)c1snc(C(N)=O)c1N)C(C(=O)NC1CCCC1)c1ccc2ncccc2c1 (stereo not shown) | -12.9
49 | Cc1cc2c(SCC(=O)NC3CCCCC3)ncnc2s1 | -2.81
50 | CCCCOC(=O)Oc1ccc2c(=O)c(Oc3cccc(C)c3)coc2c1 | 1.21
51 | COc1ccc(C(=O)NNC(=O)C(Cc2ccc(O)cc2)NC(=O)c2ccccc2NC(=O)c2ccc(OC)cc2)cc1 (stereo not shown) | 7.96
52 | Fc1ccc(CSc2ccc3nnc(-c4cccs4)n3n2)cc1 | 17.1
53 | O=C(Cn1ncc2c1-c1ccccc1OC2)N(Cc1ccco1)C1CCCCC1 | -20
54 | Cc1ccc(OCC(=O)Nc2oc(-c3ccccc3)c(-c3ccccc3)c2C#N)cc1 | 17.7
55 | CC1CN=C(Nc2cccc(S(=O)(=O)N(C)C)c2)S1 (stereo not shown) | 19.7
56 | CNC(=O)/C(C#N)=C/c1cn(CC(=O)OC)c2ccccc12 | -16.2
57 | CCOC(=O)c1cc(C(C)(C)C)n(CCCN2CCOCC2)c1C | 2.53
58 | CCC1(c2ccc(F)cc2)NC(=O)N(CC(=O)Nc2cccnc2Cl)C1=O (stereo not shown) | -7.47
59 | O=C1CC(N(CCc2ccccc2)C(=S)Nc2ccccc2)C(=O)N1c1ccc(F)cc1 (stereo not shown) | 18.2
60 | CCCC(=O)N(c1ccc(OCC)cc1)S(=O)(=O)c1ccc2c3c(cccc13)C(=O)N2C | 3.23
61 | CC(Oc1ccccc1)C(=O)N1CCC2(CC1)Oc1ccc(Cl)cc1C(=O)C21CC(c2ccccc2)=NO1 (stereo not shown) | 7.46
62 | CC1(C)CC(=O)N(c2ccc(Cl)cc2Cl)C(=O)C1 | 12.9
63 | O=[N+]([O-])c1cccc2c(Cl)ccnc12 | -0.808
64 | COCCNC(=O)CCCCCN1C(=O)CCC1=O | 10.7
65 | COc1cccc(-n2c(SCC(=O)NC(C)(C)C)nnc2-c2ccoc2C)c1 | -64.5
66 | COCc1nnc(N)s1 | 0.247

Row | Structure (SMILES) | hERG current change (%, negative = inhibition) at 10uM [%]
67 | O=c1[nH]c2ccccc2nc1NCCN1CCOCC1 | -12.7
68 | CC1CC1C(=O)OCC(=O)NCc1ccccc1Cl (stereo not shown) | 1.69
69 | C(=N/N1CCN(c2ccccc2)CC1)/c1cccs1 | -3.63
70 | CCN(CCO)c1ncnc2c1sc1nc(C(C)C)c3c(c12)CC(C)(C)OC3 | -3.74
71 | COc1ccc(CNC(=O)c2nn(-c3ccccc3)cc2OC)cc1 | -5.22
72 | COc1ccccc1-c1ccc(C(=O)O)o1 | 7.06
73 | Cc1ccc(N(C(=O)c2ccco2)C2C=CS(=O)(=O)C2)cc1 (stereo not shown) | -6
74 | CS(=O)(=O)N(CC(=O)NCCSC1CCCCC1)c1ccc2c(c1)OCO2 | -11.8
75 | O=C1OCCC1Sc1nnc(-c2ccc(O)cc2)o1 (stereo not shown) | 10.2
76 | CSc1ccccc1OCc1cc(C(=O)NCc2ccc(C)s2)no1 | 6.76
77 | CCN(CC(=O)NCc1ccco1)S(=O)(=O)c1ccc(F)cc1 | 5.61
78 | Nc1nc2n(n1)C1(CCCCC1)C1=C(CCCC1)N2 | -9.89
79 | CC1=NN(C)C(=O)C1Cc1c(F)cccc1Cl (stereo not shown) | 4.55
80 | CCc1cccc(OCC(=O)Nc2cc(S(=O)(=O)N3CCOCC3)ccc2N2CCCC2)c1 | -4.88
81 | COc1ccccc1/C=N/NC(=O)c1[nH]c(C)c(C(=O)N/N=C/c2ccccc2OC)c1C | 9.14
82 | CC(=O)N1CCCc2cc(S(=O)(=O)N3CCN(C4CCCCC4)CC3)ccc21 | -4.48
83 | COc1ccc(CC(=O)Nc2c(C(N)=O)oc3ccccc23)cc1OC | 11.4
84 | CC(C)C(NS(=O)(=O)c1cccc2nsnc12)C(=O)NC1CCCCC1C (stereo not shown) | 8.1
85 | COc1ccc(CN2CCCC(N3CCN(c4ccc(OC)cc4)CC3)C2)cc1 (stereo not shown) | -45
86 | CN(C)CC(=O)c1c(N)n(Cc2ccccc2)c(=O)n(C)c1=O | -7.58
87 | COc1ccc(NC(=O)c2cccnn2)cc1 | 22.6
88 | Cc1ccc(-c2csc(NC(=O)c3ccccc3F)c2C(=O)O)cc1 | 17.6
